Measured values: PubChem BioAssay (NCI)
“And” between values parts separate entries of the source, which are not always exact repeats. Equal values may be shown once.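 Compound exposure: 48 hours, 5 concentrations, 96-well plates. Abbreviation: GI50, concentration required for 50% inhibition of growth. Definition used: TGI = concentration required for complete inhibition of growth.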

Test system: NCI-H322M lung
Experiment: NCI-60 cell line screen, 48 h

| Compound | TGI [µM] | GI50 |
| --- | --- | --- |
| Cn1cnc2c(sc3nc4ccccc4n32)c1=N | > 100 | – |
| COc1ccc2c(c1)[n+]([O-])c(/C(C)=N/NC(=O)CC#N)c[n+]2[O-] | > 100 | – |
| COC(=O)c1nc(N)[nH]c(=O)c1CCCCCc1c(C(=O)OC)nc(N)[nH]c1=O | > 50 | – |
| CCC(c1cccc(O)c1)C(CC)c1cccc(O)c1 (stereo not drawn) | 23.6 | 4.32 µM |
| Cc1cc(=O)oc2cc(O)ccc12 | > 100 | – |
| Nc1ccc(S(=O)(=O)NCc2nccs2)cc1 | 48.1 | – |
| COc1ccc(CN2c3ccccc3CCc3ccccc32)cc1F | > 100 | 0.617 µM |
| Cc1cc(N/N=C/c2nc(-c3ccc(Cl)cc3)oc2C)c2cc(Cl)ccc2n1 | 11.5 | 3.08 µM |
| CNC(=S)N/N=C/c1ccc([N+](=O)[O-])s1 | > 10 | – |
| CCOC(=O)COS(=O)(=O)C(F)(F)F | > 100 | – |
| COc1cc2c(cc1OC)-c1c3c(cc4c1[C@@H](C2)N(C)CC4)OCO3 | 22.9 | – |
| CCc1c(C)c(C#N)c(=S)n(C2OC(CO)C(O)C(O)C2O)c1C (stereo not drawn) | > 100 | – |
| NC(=O)c1ccc(C2C3=C(CCCC3=O)OC3=C2C(=O)c2ccccc2C3=O)cc1 (stereo not drawn) | 5.05 | 2.07 µM |
| Cc1cc2c(=O)c3ccccc3[nH]c2c(C(=O)O)c1C | > 100 | – |
| O=C1c2cccc3cccc(c23)C(=O)N1CCCNOCCONCCCN1C(=O)c2cccc3cccc(c23)C1=O | > 100 | – |
| COc1ccc(-c2cn[nH]c2-c2cc(OC)c3c(c2)OCCO3)cc1 | > 100 | 1.27 µM |
| NC(N)=NS(=O)(=O)c1ccc(NC(=O)c2ccc3nc4ccccc4c(Nc4ccc(S(N)(=O)=O)cc4)c3c2)cc1 | > 100 | – |
| Cc1ccc(-c2n[nH]c(=O)[nH]2)cc1[N+](=O)[O-] | > 100 | – |
| Clc1ccc(N=c2oc3ccccc3cc2-c2nc3ccccc3[nH]2)c(Cl)c1 | > 100 | – |
| C[n+]1c2ccccc2c(C(=O)Nc2ccc(S(=O)(=O)N=C(N)N)cc2)c2ccccc21 | > 100 | – |
| Cc1c2c(OCCCCN3CCN(c4ncccn4)CC3)nn(C)c(=O)c2c(C)n1-c1ccccc1 | 36 | – |
| C[N+]1(C)C/C(=C\c2ccncc2)C(=O)/C(=C/c2ccncc2)C1 | > 100 | – |
| O=[N+]([O-])c1nccn1COCCBr | > 100 | – |

| Compound | TGI [µM] | GI50 |
| --- | --- | --- |
| Cc1c2cc[n+](C)cc2c(C)c2c1[nH]c1ccc(O)c(OCC(F)(F)F)c12 | 12.2 | – |
| Nc1ccc2[nH]c(C(=O)N3CC(CCl)c4c3cc(N)c3ccccc43)cc2c1 (stereo not drawn) | < 0.01 | – |
| COc1c(C)c(OC)c2c(c1O)[C@@H]1[C@@H]3Cc4c(OC)c(C)c(OC)c(O)c4[C@H](CNC(=O)c4cnc5ccccc5n4)N3[C@@H](C#N)[C@H](C2)N1C | 0.0325 | – |
| C#CCn1c(=O)c(C#N)c(O)c2cc3ccccc3nc21 | > 31.6 | – |
| O=c1[nH]c(Nc2cccc(Cl)c2)nc2nc[nH]c12 | > 100 | – |
| O=C(NCCCNCCNC(=O)c1cc(-c2ccccc2)nc2ccccc12)c1cc(-c2ccccc2)nc2ccccc12 | 6.07 | – |
| CCN(CC)CCNc1n[n+]([O-])c2ccccc2[n+]1[O-] | 54.3 | – |
| CCOc1cc(C2CC(c3ccc(NS(=O)(=O)c4cc([N+](=O)[O-])ccc4C)cc3)=NN2)ccc1O (stereo not drawn) | 68.1 | – |
| Cc1nc(C(N)=S)sc1C(=O)C/C(=N/N)C(=O)Nc1cccc(Cl)c1C | > 100 | – |
| O=C(O)CSc1ncccc1[N+](=O)[O-] | > 100 | – |
| CC(=O)Nc1ccc(S(=O)(=O)NNC(=O)c2cccnc2Nc2ccc(Cl)cc2)cc1 | > 100 | > 100 µM |
| O=C([CH-]C(=O)C(F)(F)F)c1ccccc1.O=C([CH-]C(=O)C(F)(F)F)c1ccccc1.O=C([CH-]C(=O)C(F)(F)F)c1ccccc1.O=C([CH-]C(=O)C(F)(F)F)c1ccccc1.[Eu+3].c1ccncc1 | > 100 | 15.1 µM |
| Cn1c2ccccc2c2c3c(c4c5ccccc5n(C)c4c21)C(=O)c1ccccc1C3=O | > 100 | – |
| O=C(N[C@H]1c2ccsc2/C(=N/O)[C@H]1O)C(F)(F)F | > 100 | – |
| CC(=O)O[C@@H]1C2C(=O)OC(=O)C2C2CCC[C@]23O[C@H]13 (stereo partly drawn) | > 100 | – |
| Cc1ccc2c(c1)C(c1cccc3ccccc13)OC2=O (stereo not drawn) | > 100 | – |
| N.N.N.N.N.N.O=N[O-].[Br-].[Co+3].[Co+3].[OH3+].[OH3+] | > 100 | > 100 µM |
| COc1cc(C2S/C(=C/c3ccccc3)C(=O)N2c2ccc(Cl)c(Cl)c2)cc(OC)c1OC (stereo not drawn) | > 100 | – |
| CC(C)N(C)C(=O)C12C3C4C1C1C2C3C41C#N (stereo not drawn) | > 100 | – |
| COC(=O)C1(Cc2ccccc2)Cc2ccccc2C1 | > 100 | – |
| CC(=O)c1cc2ccccc2n(O)c1=N | > 100 | – |
| NCCCCNCCCNC(=O)c1nc(-c2csc(CCN)n2)sc1Cl | > 100 | – |
| Cc1cc(=O)oc2cc(O)c(CN(C)CC(=O)O)cc12 | > 100 | – |

| Compound | TGI [µM] | GI50 |
| --- | --- | --- |
| COc1ccc(OC)c2c1C1CCC(=O)N1CN2C(C)=O (stereo not drawn) | > 100 | – |
| CC(=O)O[C@H]1C(=O)[C@@]2(C)[C@H]([C@H](OC(=O)c3ccccc3)[C@]3(O)C[C@H](OC(=O)[C@H](O)[C@@H](NC(=O)CC(C)(C)C)c4ccccc4)C(C)=C1C3(C)C)C1(OC(C)=O)CO[C@@H]1C[C@@H]2O (stereo partly drawn) | > 10 | – |
| COc1cc2nc(-c3ccc(C(F)(F)F)cc3)cc(OCCCN3CCCCC3)c2cc1OC | 21.3 | 8.7 µM |
| COc1ccc(C(=O)N2c3ccccc3Sc3ccccc32)c(C(F)(F)F)c1 | > 100 | 18.2 µM |
| COc1ccc(/C=C2\N=C(c3ccccc3)N(C3Nc4cc5c(cc4S3)NC(N3C(=O)/C(=C/c4ccc(OC)cc4)N=C3c3ccccc3)S5)C2=O)cc1 (stereo not drawn) | > 100 | – |
| O=C1NC2(CN3CCC2CC3)C(=O)N1CN(Cc1ccccc1)c1ccccc1 (stereo not drawn) | > 100 | – |
| CCO/C(O)=C(/C(=N)N1CCCC1)C(=O)Nc1cccc(C(F)(F)F)c1 | > 100 | – |
| C=C=C(C(=O)OC)S(=O)c1ccc([N+](=O)[O-])cc1[N+](=O)[O-] (stereo not drawn) | > 100 | – |
| COC(=O)C1=C(C(=O)OC)SC(=C(Cl)C(=S)Sc2ccccc2N)S1 | > 100 | 63.5 µM |
| C/C(O)=C/c1nc2ccc([N+](=O)[O-])cc2nc1/C=C(/C)O | > 100 | – |
| O=[N+]([O-])c1ccc2c(c1)[O][Sn]([I])([I])[O]2 | > 100 | > 100 µM |
| CC1(C)C2CCC3(C2)CS(=O)(=O)N2OC231 (stereo not drawn) | > 100 | – |
| CC[C@@]1(O)C(=O)OCc2c1cc1n(c2=O)Cc2cc3cc(N)ccc3nc2-1 | – | 0.0718 µM and 0.0304 µM |
| CSc1cc(N)ccc1N=Nc1ccc(S(N)(=O)=O)cc1 | > 100 | – |
| Cc1c(NC2(C)C(=O)N(/N=C/c3ccccc3)N=C2c2ccccc2)n[nH]c1-c1ccccc1 (stereo not drawn) | > 100 | – |
| CN1C(=O)C(Cl)(C(Cl)(Cl)S(=O)(=O)O)C(=O)c2ccccc21 (stereo not drawn) | > 100 | – |
| CC(=O)OCC=C(CCl)CCC(Br)C(C)(C)Br (mixture of isomers) | > 10 | – |
| COc1cc(/C=N/Nc2nnc3c4ccccc4c4ncccc4c3n2)cc(OC)c1OC | > 10 | – |
| CCN(CC)CCCC(C)Nc1c2ccc(C)cc2nc2ccc(OC)cc12 (stereo not drawn) | 2.38 | 0.284 µM |
| C[C@]12CC[C@@H]3c4ccc(OC(=O)c5ccccc5)cc4CC[C@H]3[C@@H]1CC[C@@H]2Oc1c2ccccc2nc2ccccc12 | > 50 | – |
| COC(=O)c1c(-c2ccccc2)sc(-c2cccc3ccccc23)c1C(=O)OC | > 100 | – |
| CC(C)(C)NC(=O)[C@H]1C[C@H]2CCCC[C@H]2CN1C[C@@H](O)[C@H](Cc1ccccc1)NC(=O)[C@H](CC(N)=O)NC(=O)c1ccc2ccccc2n1 | 32.1 | 15.4 µM |
| O=c1oc2ccc(Cl)cc2cc1-c1cn2cc(Cl)ccc2n1 | > 100 | – |
